Consider seven molecules from patent US20240101686A1 (SIMCERE ZAIMING PHARMACEUTICAL, published 2024).

B1: S008-NB148-48 VHH-Fc antibody (Fc fusion)
chain: QLQLVESGGGLVQAGGSLKLSCVASGFTFSNYAMAWYRQAPGKQRELIASCSASCIWTNYGASVKGRFTMSLDNAKKTVYLQMDSLKPEDTAVYYCRNLDANYWGQGTQVTVSS[human IgG1 Fc with changes not shown]
notes: VHH fused to human IgG1 hinge and Fc
B2: S008-NB148-69 VHH-Fc antibody (Fc fusion)
chain: EVQVVESGGGLVQAGGSLRLSCAASTITISSAGVSWYRQAPGKQRELVAIITRGGSTNYADSVKGRFTISRDNAKNTHYLQMYNLKPEDTGIYYCNVVPPTYWGQGTQVTVSS[human IgG1 Fc with changes not shown]
notes: as for B1
B3: S008-NB148-77 VHH-Fc antibody (Fc fusion)
chain: EVQVVESGGGLVQAGGSLRLSCVASGFDFSDSVMGWYRQAPGKQREAVAIISSVGQSNYRDSVQGRFTVSRSNTENTMYLQMDSLKPEDTAIYYCKKFGPGEYWGQGTQVTVSS[human IgG1 Fc with changes not shown]
notes: as for B1
B4: S008-NB148-5 VHH-Fc antibody (Fc fusion)
chain: QLQLVESGGGLVQAGGSLRLSCAVSISTFTTNGWDWYRQAPGKQRELVALISNDGTTTYTDSVKGRFTISRDGAKNTVYLQMNNLKPEDTAVYYCNTIPPAGSWGQGTQVTVSS[human IgG1 Fc with changes not shown]
notes: as for B1
B5: S008-NB149-15 VHH-Fc antibody (Fc fusion)
chain: QLQLVESGGGLVRPGGSLRLSCAASGSIFSRSGATWYRQAPGKQRELVALLTRDGHTDYPVVSVKGRFTISKDNAKNTVYLQMNSLQPEDTAVYYCNAIPPLGSWGRGTQVTVSS[human IgG1 Fc with changes not shown]
B6: S008-NB149-12 VHH-Fc antibody (Fc fusion)
chain: QVQLVESGGGLVQPGGSLRLSCVVSESISVINAMTWYRQAPGKQRELVALISRGGSTNYADSVKGRFTISRDNAKNSVYLQMNSLKPEDTALYYCNVVPPLGSWGQGTQVTVSS[human IgG1 Fc with changes not shown]
B7: S008-NB149-22 VHH-Fc antibody (Fc fusion)
chain: QVQLVESGGGLVQAGGSLRLSCVASGRFPSIYRMAWFRQAPGKERDFVAAINWGGTATYYEDSVKGRFTISRDNTKNTVWLQMNSLKPEDTAVYYCAAGTGTTYTPQRGDAYGYWGQGTQVTVSS[human IgG1 Fc with changes not shown]

The target of the first assay is T1, human EGFR endogenously expressed on A431 cells (human, UniProt P00533).
T1 construct: whole, on cells
Experiment: not given
B1 returned a Max_MFI of 13800.
Still for that read-out and setting: to B2 belongs 16000.
Still for that read-out and setting: to B3 belongs 8820; to B4, 13900.

The next assay concerns the target T2, cynomolgus monkey EGFR on HEK293T-monkey EGFR cells (cynomolgus monkey, UniProt P55245 (rhesus entry)). Kind of assay: FACS, HEK293T-monkey EGFR cells. (In flow cytometry, cells or beads pass a laser one at a time.)
Consider B1, for which the EC50 (as a rule, the midpoint of the concentration-response curve) was determined as 47.6 nM and the “Max MFI” value worked out at 4750.
As for B2, the EC50 was determined as 15.9 nM and the “Max MFI” value was determined as 17600.
As to B3, the midpoint of the response, the EC50, lay at 2.18 nM and the “Max MFI” value stood at 12700.
As to B4, the EC50 was determined as 27.6 nM and the “Max MFI” value was found to be 16200.

A further assay concerns the target T3, murine EGFR protein (murine, UniProt Q01279 25-647).
T3 construct: Bought protein
Experiment: not given
B5 had an OD450 of 0.05.
Molecule B6 registered an OD450 of 0.05.
Molecule B7 gave an OD450 of 0.05.

A further assay addresses T4, monkey EGFR protein (commercial, SB, catalog number 90285-C08H) (monkey).
T4 construct: Bought protein used to coat ELISA plates
Put plainly: ELISA, coated monkey EGFR protein, antibody 1 nM. (An ELISA detects its analyte on a solid surface through an enzyme-linked reagent.)
For the molecule B1, the OD450 worked out at 2.38.
On to B2, for which the OD450 stood at 2.24.
Regarding B3, the OD450 turned out to be 1.99.
Same read-out and setting: as for B4, the figure is 2.32.

For a further assay, the target named is T3, murine EGFR protein.
Experiment: not given
The source holds these as a separate data set.
As for B5, the OD450 was determined as 0.05.
Molecule B6 returned an OD450 of 0.05.
Same read-out and setting: to B7 belongs 0.05.

A further assay deals with T4, monkey EGFR protein (commercial, SB, …). Kind of assay: ELISA, coated monkey EGFR protein, antibody 10 nM.
The molecule B1 registered an OD450 of 2.53.
Turning to B2, the OD450 amounted to 2.43.
On the same count and under the same terms, to B3 belongs 2.11; to B4, 2.51.

A further assay deals with T3, murine EGFR protein.
Experiment: not given
This is another data set of the same source.
Regarding B5, the OD450 was found to be 0.05.
Still for that read-out and setting: to B6 belongs 0.05; to B7, 0.05.

A further assay concerns the target T3, murine EGFR protein.
Experiment: not given
This is another data set of the same source.
In turn, B5 displayed an OD450 of 0.08.
For B6, the OD450 turned out to be 0.06.
On the same count and under the same terms, to B7 belongs 0.07.

For the next assay, the target named is T4, monkey EGFR protein (commercial, SB, …). Kind of assay: ELISA, coated monkey EGFR protein, antibody 0.1 nM.
As to B1, the OD450 was 1.64.
Molecule B2 registered an OD450 of 1.93.
The same measure, in the same setting: as for B3, the figure is 1.75; as for B4, 1.92.

The target is the same in a further assay. Kind of assay: ELISA, coated monkey EGFR protein, antibody 100 nM.
B1 registered an OD450 of 2.69.
On to B2, for which the OD450 came out at 2.58.
Still for that read-out and setting: as for B3, the figure is 2.22.
On the same count and under the same terms, to B4 belongs 2.56.

In another assay the target is T5, human EGFRvIII-His tag protein (extracellular domain Leu25-Ser378) (human, UniProt P00533 part only).
T5 construct: Made in HEK293E cells, purified on nickel column; also called human EGFRvIII protein; EGFRvIII protein; not shown: His tag
Experiment: not given
B5 displayed an OD450 of 2.12.
Turning to B6, the OD450 came out at 1.95.
Still for that read-out and setting: as for B7, the figure is 1.93.

For another assay, the target named is T3, murine EGFR protein.
Experiment: not given
The source holds these as a separate data set.
Take B5: the OD450 stood at 0.05.
With B6, the OD450 turned out to be 0.05.
In turn, B7 displayed an OD450 of 0.05.

Another assay concerns the target T4, monkey EGFR protein (commercial, SB, …). Put plainly: ELISA, coated monkey EGFR protein, antibody 0.01 nM.
For B1, the OD450 was determined as 0.28.
On the same count and under the same terms, to B2 belongs 0.64.
For B3, the OD450 worked out at 0.59.
On the same count and under the same terms, as for B4, the figure is 0.7.

The target in a further assay is T2, cynomolgus monkey EGFR on …. Kind of assay: FACS, HEK293T-monkey EGFR cells (specificity assay).
The molecule B1 returned a Max_MFI of 4460.
With B2, the Max_MFI came out at 10800.
Same read-out and setting: to B3 belongs 10100; to B4, 9550.

A further assay concerns the target T5, human EGFRvIII-His tag protein ….
Experiment: not given
This is another data set of the same source.
On to B5, for which the OD450 stood at 2.36.
B6 gave an OD450 of 2.21.
On the same count and under the same terms, as for B7, the figure is 2.19.

The target in another assay is T3, murine EGFR protein.
Experiment: not given
This is another data set of the same source.
B5 came in with an OD450 of 0.05.
On the same count and under the same terms, to B6 belongs 0.05; to B7, 0.05.

A further assay has as its target T4, monkey EGFR protein (commercial, SB, …). Put plainly: ELISA, coated monkey EGFR protein, antibody 0.001 nM.
B1 showed an OD450 of 0.08.
For B2, the OD450 was found to be 0.14.
Still for that read-out and setting: to B3 belongs 0.11; to B4, 0.15.

A further assay addresses T5, human EGFRvIII-His tag protein ….
Experiment: not given
This is another data set of the same source.
As for B5, the OD450 amounted to 2.01.
Same read-out and setting: as for B6, the figure is 1.6; as for B7, 1.47.

The next assay has the same target.
Experiment: not given
This is another data set of the same source.
In turn, B5 registered an OD450 of 2.36.
Molecule B6 showed an OD450 of 2.14.
Still for that read-out and setting: to B7 belongs 2.3.

For a further assay, the target named is T3, murine EGFR protein.
Experiment: not given
This is another data set of the same source.
For B5, the OD450 came to 0.05.
The molecule B6 had an OD450 of 0.05.
The same measure, in the same setting: as for B7, the figure is 0.05.

Another assay has as its target T4, monkey EGFR protein (commercial, SB, …). Put plainly: ELISA, coated monkey EGFR protein, antibody 0.0001 nM.
B1 displayed an OD450 of 0.06.
B2 registered an OD450 of 0.06.
On the same count and under the same terms, to B3 belongs 0.04; to B4, 0.06.

For a further assay, the target named is T5, human EGFRvIII-His tag protein ….
Experiment: not given
The source holds these as a separate data set.
Regarding B5, the OD450 was found to be 0.99.
The same measure, in the same setting: as for B6, the figure is 0.53; as for B7, 0.38.

The target is the same in the next assay.
Experiment: not given
The source holds these as a separate data set.
Regarding B5, the OD450 worked out at 0.24.
B6 had an OD450 of 0.1.
Same read-out and setting: to B7 belongs 0.08.

A further assay shares this target.
Experiment: not given
This is another data set of the same source.
B5 showed an OD450 of 0.1.
Still for that read-out and setting: to B6 belongs 0.05; to B7, 0.04.

In the next assay the target is T3, murine EGFR protein.
Experiment: not given
This is another data set of the same source.
The molecule B5 returned an OD450 of 0.05.
Still for that read-out and setting: as for B6, the figure is 0.05; as for B7, 0.05.

For the next assay, the target named is T4, monkey EGFR protein (commercial, SB, …). Put plainly: ELISA, coated monkey EGFR protein, antibody 0 nM (blank).
With B1, the OD450 turned out to be 0.06.
B2: the OD450 turned out to be 0.07.
The same measure, in the same setting: to B3 belongs 0.04; to B4, 0.06.

The target of another assay is T5, human EGFRvIII-His tag protein ….
Experiment: not given
The source holds these as a separate data set.
In turn, B5 gave an OD450 of 0.1.
On the same count and under the same terms, to B6 belongs 0.04; to B7, 0.04.
